We go through one molecule from US20150246136A1 (Bayer, published 2015).

This test deals with T1, C4.4a (Homo sapiens, UniProt O95274 31-326).
T1 sequence (looked up): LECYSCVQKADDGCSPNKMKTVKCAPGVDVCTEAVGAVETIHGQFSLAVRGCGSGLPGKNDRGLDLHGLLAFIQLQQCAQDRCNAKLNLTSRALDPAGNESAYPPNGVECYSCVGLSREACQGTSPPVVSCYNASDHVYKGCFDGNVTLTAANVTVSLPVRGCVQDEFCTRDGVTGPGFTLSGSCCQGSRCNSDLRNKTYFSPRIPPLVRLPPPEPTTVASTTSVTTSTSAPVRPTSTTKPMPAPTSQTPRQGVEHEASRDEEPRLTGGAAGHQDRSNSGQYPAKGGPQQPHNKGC
Nature of the test: cell-based or functional assay.

B1: Example 388 Diastereomer 2 (antibody, human IgG1, lambda)
heavy: EVQLLESGGGLVQPGGSLRLSCAASGFTFSNAWMSWVRQAPGKGLEWVSYISSSGSTIYYADSVKGRFTISRDNSKNTLYLQMNSLRAEDTAVYYCAREGLWAFDYWGQGTLVTVSS[in this place human IgG1 constant region]
light: ESVLTQPPSVSGAPGQRVTISCTGSSSNIGAGYVVHWYQQLPGTAPKLLIYDNNKRPSGVPDRFSGSKSGTSASLAISGLRSEDEADYYCAAWDDRLNGPVFGGGTKLTVLGQPKAAPSVTLFPPSSEELQANKATLVCLISDFYPGAVTVAWKADSSPVKAGVETTTPSKQSNNKYAASSYLSLTPEQWKSHRSYSCQVTHEGSTVEKTVAPTECS
modifications: linker-toxophore on lysine NH
For B1, the “IC50 (nM) A549: C4.4a” value came to 0.04 nM.
